The whole screen tested about 310,000 compounds, of which about 14,000 (4.5%) showed an effect of 50% or more. The effect is printed as a negative number. The list shows a part of the results.
What follows are molecules tested against human ether-à-go-go-related gene (hERG) potassium channel (human, UniProt Q12809) (assay: primary screen, population patch clamp on CHO cells stably expressing hERG).
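Further: peak tail current of the secondary pulse compared with the same well before compound.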

Sequence of human ether-à-go-go-related gene (hERG) potassium channel (Q12809 whole entry, looked up): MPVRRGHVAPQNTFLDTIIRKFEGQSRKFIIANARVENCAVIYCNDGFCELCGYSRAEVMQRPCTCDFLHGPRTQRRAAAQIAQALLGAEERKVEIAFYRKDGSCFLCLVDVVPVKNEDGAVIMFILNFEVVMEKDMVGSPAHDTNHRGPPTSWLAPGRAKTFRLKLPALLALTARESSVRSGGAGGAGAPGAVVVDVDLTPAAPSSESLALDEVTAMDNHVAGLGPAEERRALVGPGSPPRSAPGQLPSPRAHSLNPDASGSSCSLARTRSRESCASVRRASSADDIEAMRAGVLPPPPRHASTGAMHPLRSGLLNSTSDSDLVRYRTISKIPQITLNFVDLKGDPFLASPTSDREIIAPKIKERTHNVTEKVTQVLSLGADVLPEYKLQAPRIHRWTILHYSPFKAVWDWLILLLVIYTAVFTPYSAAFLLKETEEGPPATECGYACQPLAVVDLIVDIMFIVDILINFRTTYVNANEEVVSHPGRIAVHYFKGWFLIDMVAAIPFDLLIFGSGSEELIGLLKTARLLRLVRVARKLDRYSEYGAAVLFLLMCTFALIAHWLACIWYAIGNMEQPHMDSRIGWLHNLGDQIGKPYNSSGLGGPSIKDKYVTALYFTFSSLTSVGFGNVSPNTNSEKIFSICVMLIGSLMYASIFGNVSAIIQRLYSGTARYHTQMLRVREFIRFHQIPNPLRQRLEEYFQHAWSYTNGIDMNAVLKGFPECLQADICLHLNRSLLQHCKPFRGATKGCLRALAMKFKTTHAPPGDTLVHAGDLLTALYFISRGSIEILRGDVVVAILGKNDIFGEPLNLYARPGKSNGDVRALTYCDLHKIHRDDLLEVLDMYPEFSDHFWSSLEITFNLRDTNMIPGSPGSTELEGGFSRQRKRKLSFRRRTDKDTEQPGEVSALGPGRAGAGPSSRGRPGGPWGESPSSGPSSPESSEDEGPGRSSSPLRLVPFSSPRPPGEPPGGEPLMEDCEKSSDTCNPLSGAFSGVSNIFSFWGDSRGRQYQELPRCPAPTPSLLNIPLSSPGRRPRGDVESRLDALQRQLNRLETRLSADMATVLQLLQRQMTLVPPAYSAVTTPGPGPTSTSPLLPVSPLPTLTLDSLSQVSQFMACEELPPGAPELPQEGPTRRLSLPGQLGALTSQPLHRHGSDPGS

SMILES | hERG current change (%, negative = inhibition) at 10uM
COc1ccc(Cc2nnc(NS(=O)(=O)c3ccc(Cl)cc3)s2)cc1OC | 8.52%
c1ccc(-n2nnnc2-c2cnc(-c3cccnc3)nc2-c2cccs2)cc1 | -10.6%
Cc1ccc(S(=O)(=O)NC(C)(C)C)cc1C(=O)OCC(=O)N1CCCC1=O | -2.21%
CCCCCC(=O)NNC(=O)Nc1ccccc1 | 5.05%
CC(C)CNC(=O)c1c(N)n(Cc2ccc3c(c2)OCO3)c2nc3ccccc3nc12 | 7.61%
O=C(c1cc2nc(-c3cccs3)cc(C(F)(F)F)n2n1)N1CCCc2ccccc21 | 3.7%
O=C(O)c1ccc(N2CCCS2(=O)=O)cc1 | 15.3%
COc1ccccc1-c1ccc(Nc2cccc(C(C)=O)c2)nn1 | 3.77%
CC(NC(=O)c1cccs1)C(S)c1ccccc1 (centres unmarked) | 0.421%
Cc1ccc(-c2cc(-c3ccccc3Cl)[nH]n2)c(O)c1 | -9.2%
O=C(CSc1nc2ccccc2n1Cc1ccccc1Cl)N/N=C/c1ccccc1C(=O)O | -0.999%
O=C(O)CCCN1C(=O)/C(=C/C=C/c2ccco2)SC1=S | 24.4%
CCC(=O)N1CCN(c2ccccc2NC(=O)c2cccs2)CC1 | -50.4%
CCCCC1(C)NC(=O)c2c(C)sc(C(=O)OCC)c2N1 (centres unmarked) | 4.17%
COc1c(F)c(F)c(C(=O)O)c(Nc2cccc(C)c2)c1F | 23.3%
COCCN1C(=S)N[C@@H](c2cccc(F)c2)C(C(=O)OC)=C1C | -15.8%
COc1ccc(OC)c(S(=O)(=O)N(C)CC(=O)Nc2ccc3c(c2)OCCO3)c1 | 5.37%
CCOc1ccc(N(C(=O)c2snc(C(N)=O)c2N)C(C(=O)NCC2CCCO2)c2c[nH]c3ccccc23)cc1 (centres unmarked) | 14%
CCOc1ccc(NC(=O)N(CCC(C)C)C2CCN(C(C)=O)CC2)cc1 | -9.87%
Cc1cccc(N2CCN(S(=O)(=O)c3cn(C)cn3)CC2)c1C | 11.6%
Cc1cc(OCC(=O)N2CCN(c3ccccc3)CC2)c2c(C)c(C)c(=O)oc2c1 | 23.4%
Cc1ccc(-c2cc(C(=O)Nc3nccs3)c3ccccc3n2)c(C)c1 | 12.8%

SMILES | hERG current change (%, negative = inhibition) at 10uM
CC(C)c1nnc(NC(=O)CCS(=O)(=O)Cc2ccccc2)s1 | 11%
O=C(N/N=C/c1ccccn1)C1CC1 | -69.4%
CCOc1ccc(NC(=O)CC2C(=O)NCCN2C(=O)Nc2ccccc2)cc1 (centres unmarked) | 0.493%
COc1cc(SC)ccc1C(=O)NCCCOC(C)C | 1.85%
Cc1cc(NC(=O)CSc2nnc(-c3ccncc3)n2N)ccc1Br | -16.6%
COC(=O)C1CCN(C(=O)COc2ccc(N(C)S(=O)(=O)c3ccc(C)cc3)cc2)CC1 | -33.8%
O=C(CCNC(=O)c1ccc(Br)cc1)Nc1cccc(S(=O)(=O)N2CCCCC2)c1 | -36.1%
O=C(COC(=O)c1ccc([N+](=O)[O-])s1)Nc1ccc(F)cc1 | -12.2%
CCN(CC)CCNC(=O)c1ccc(NC(=O)c2ccc(COc3ccccc3)cc2)cc1 | 13.2%
CC(/C=C/c1ccccc1)=N\NC(=O)c1ccncc1 | -28%
Cc1ccc(C)c(S(=O)(=O)N2CCCOC2CNC(=O)C(=O)NCc2ccncc2)c1 (centres unmarked) | 0.734%
CCOC(=O)N1CCC(Nc2c(N3CCN(c4cc(Cl)ccc4C)CC3)c(=O)c2=O)CC1 | -80.4%
CC(C)C[C@H](NC(=O)C1CC(=O)N(c2ccc3c(c2)OCO3)C1)C(=O)NC1CCCC1 (some centres unmarked) | -0.704%
CC(=O)C1C(=O)c2c(cccc2[N+](=O)[O-])C1=Nc1ccc(S(N)(=O)=O)cc1 (centres unmarked) | -7.76%
Cl.c1cncc(CNC2CCCCC2)c1 | 16%
NC(=O)c1ccccc1NS(=O)(=O)c1ccc2c(c1)OCCO2 | 0.161%
COc1ccc(CCCc2n[nH]c(=S)o2)c(C)c1 | 17.5%
Cc1c(N=c2c(=O)c3ccccc3c2=O)c(=O)n(-c2ccccc2)n1C | -11.8%
COc1ccc(S(=O)(=O)NCCCCOc2ccc(Cl)cc2)cc1 | 9.11%
CC(=O)Nc1ccc(S(=O)(=O)N2c3ccccc3C(C)=CC2(C)C)cc1 | -20.1%
O=C(O)c1cccc(S(=O)(=O)Nc2ccccc2C(=O)NCCc2ccccc2)c1 | 24.9%
O=C(Nc1ccc(OCc2ccccc2)cc1)c1cccnc1 | 10.7%

Reference: publication PMC4336329 (PLoS ONE, 2015)
